Where a name gives a salt, the structure may show the parent alone. Some of the results follow. Repeats are few or missing, and single values can be far off.

From the supplement of paper PMC12355420 come the findings set out here.
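Further: primary screen of an FDA-approved drug library in HeLa reporter cells in 96-well format, CellMask signal normalized to DMSO-treated wells set as 1, under 0.5 deemed highly cytotoxic.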

The test system of this test is HeLa VPS33A reporter cells. The test can be described thus: relative cell viability (CellMask signal) vs DMSO (fraction of DMSO); HeLa model of a glycosaminoglycan (GAG) storage disease; KI is knock-in and KO knock-out; SDC1 is syndecan 1; higher = less cytotoxic. The conditions noted are these: 50 µM; 24 h.
In turn, `CC1=C(/C=C/C(C)=C/C=C/C(C)=C/C(=O)Nc2ccc(O)cc2)C(C)(C)CCC1` [Fenretinide] gave a relative cell viability of 0.00554.
`CCN(CC)CCNC(=O)c1c(C)[nH]c(/C=C2\C(=O)Nc3ccc(F)cc32)c1C` [Sunitinib malate] came in with a relative cell viability of 0.00643.
Then `COCC[n+]1c2c(n(Cc3cnccn3)c1C)C(=O)c1ccccc1C2=O`, with 0.00515; and `CN1CCN(CCCN2c3ccccc3Sc3ccc(C(F)(F)F)cc32)CC1` [Trifluoperazine 2HCl], with 0.00599; and `CCOC(=O)C1=C(COCCN)NC(C)=C(C(=O)OC)C1c1ccccc1Cl` (stereo not given) [Amlodipine], with 0.00488.
Then `C[C@H]1O[C@@H](O[C@H]2[C@@H](O)C[C@H](O[C@H]3[C@@H](O)C[C@H](O[C@H]4CC[C@@]5(C)[C@H](CC[C@@H]6[C@@H]5C[C@@H](O)[C@]5(C)[C@@H](C7=CC(=O)OC7)CC[C@]65O)C4)O[C@@H]3C)O[C@@H]2C)C[C@H](O)[C@@H]1O` [Digoxin], with 0.0375; and `COc1cccc2c1C(=O)c1c(O)c3c(c(O)c1C2=O)C[C@@](O)(C(C)=O)C[C@@H]3O[C@H]1C[C@H](N)[C@H](O)[C@H](C)O1` [Daunorubicin HCl], with 0.00618; and `CN(C(=O)CN(CCO)CC(=O)N(C)C(C)(C)Cc1ccccc1)C(C)(C)Cc1ccccc1` [Oxethazaine], with 0.00936.
Take `CC(=O)[C@]1(O)Cc2c(O)c3c(c(O)c2[C@@H](O[C@H]2C[C@H](N)[C@H](O)[C@H](C)O2)C1)C(=O)c1ccccc1C3=O` [Idarubicin HCl]: the relative cell viability is 0.00462.
For `CC(=O)N1CCN(c2ccc(OCC3COC(Cn4ccnc4)(c4ccc(Cl)cc4Cl)O3)cc2)CC1` (single isomer, unassigned; (+)) [(+)-Ketoconazole] the value was 0.0634.
